According to paper PMC4336329 (PLoS ONE, 2015):
About 14,000 (4.5%) of roughly 310,000 compounds showed an effect of 50% or more. Effects have a minus sign here. The list shows a part of the results.
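Further: peak tail current of the secondary pulse compared with the same well before compound.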

Each compound was assayed against human ether-à-go-go-related gene (hERG) potassium channel (human, UniProt Q12809) (assay: primary screen, population patch clamp on CHO cells stably expressing hERG).
Sequence of human ether-à-go-go-related gene (hERG) potassium channel (Q12809 whole entry, looked up): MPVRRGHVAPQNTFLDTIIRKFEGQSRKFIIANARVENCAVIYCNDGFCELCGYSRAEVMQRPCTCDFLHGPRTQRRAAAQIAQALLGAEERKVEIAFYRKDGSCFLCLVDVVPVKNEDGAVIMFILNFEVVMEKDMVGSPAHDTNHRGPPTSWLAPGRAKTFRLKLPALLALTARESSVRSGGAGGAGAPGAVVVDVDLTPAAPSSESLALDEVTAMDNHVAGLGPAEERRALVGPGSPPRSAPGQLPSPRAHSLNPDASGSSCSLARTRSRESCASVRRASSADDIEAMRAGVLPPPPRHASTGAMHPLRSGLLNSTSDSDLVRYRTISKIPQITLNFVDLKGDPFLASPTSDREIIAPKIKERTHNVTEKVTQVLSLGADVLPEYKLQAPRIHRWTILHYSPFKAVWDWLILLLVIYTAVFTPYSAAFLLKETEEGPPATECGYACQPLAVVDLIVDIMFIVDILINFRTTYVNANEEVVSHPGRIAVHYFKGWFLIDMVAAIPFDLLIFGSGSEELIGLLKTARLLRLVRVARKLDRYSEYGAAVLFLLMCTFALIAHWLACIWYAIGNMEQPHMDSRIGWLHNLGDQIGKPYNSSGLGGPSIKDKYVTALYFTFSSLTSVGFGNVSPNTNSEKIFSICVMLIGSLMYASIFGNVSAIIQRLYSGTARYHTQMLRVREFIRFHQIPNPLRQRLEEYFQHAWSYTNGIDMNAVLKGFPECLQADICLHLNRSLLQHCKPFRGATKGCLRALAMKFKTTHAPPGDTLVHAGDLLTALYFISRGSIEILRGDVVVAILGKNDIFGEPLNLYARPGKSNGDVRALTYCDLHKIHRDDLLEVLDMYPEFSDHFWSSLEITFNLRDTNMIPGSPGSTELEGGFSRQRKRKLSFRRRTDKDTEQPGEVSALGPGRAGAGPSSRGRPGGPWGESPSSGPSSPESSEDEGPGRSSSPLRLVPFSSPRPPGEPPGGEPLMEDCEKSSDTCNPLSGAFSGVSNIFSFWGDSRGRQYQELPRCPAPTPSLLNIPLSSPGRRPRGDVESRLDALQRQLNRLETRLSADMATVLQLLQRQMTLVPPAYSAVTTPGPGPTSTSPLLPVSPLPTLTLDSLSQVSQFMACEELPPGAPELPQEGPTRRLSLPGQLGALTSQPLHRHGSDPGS
With `CC(=O)c1ccccc1OCc1ccc(S(=O)(=O)Cc2ccccc2)cc1` the “hERG current change (%, negative = inhibition) at 10uM” value was -26.6%.
`CCOCc1nnc(NS(C)(=O)=O)s1` was tested, and the “hERG current change (%, negative = inhibition) at 10uM” value was 5.71%.
With `COc1cccc(-c2nn(Cc3ccccc3)cc2C(=O)O)c1` the “hERG current change (%, negative = inhibition) at 10uM” value was 13.1%.
With `COC(=O)N/N=C/c1cc([N+](=O)[O-])cc(Br)c1O` the “hERG current change (%, negative = inhibition) at 10uM” value was 38.8%.
With `COc1ccc(N(CC(=O)Nc2ccccc2C(=O)N2CCCC2)S(=O)(=O)c2ccccc2)cc1` the “hERG current change (%, negative = inhibition) at 10uM” value was -51.8%.
With `COc1ccc(N2CCN(c3nccs3)CC2)cc1` the “hERG current change (%, negative = inhibition) at 10uM” value was 4.77%.
In the case of `CCC(C)[C@H](NC(=O)[C@@H]1CSC2c3ccccc3C(=O)N21)C(=O)NCc1ccncc1` (stereo partly drawn), the “hERG current change (%, negative = inhibition) at 10uM” value is reported as -6.39%.
`O=C(NNC(=O)c1ccc(F)c(S(=O)(=O)N2CCOCC2)c1)c1ccc([N+](=O)[O-])cc1` was tested, and the “hERG current change (%, negative = inhibition) at 10uM” value was -45%.
In the case of `O=C(COC(=O)C1CCC1)Nc1ncc(Cl)cc1Cl`, the “hERG current change (%, negative = inhibition) at 10uM” value is reported as -9.55%.
For `O=C(Nc1cc(C(F)(F)F)ccc1-n1cncn1)c1ccc([N+](=O)[O-])o1`, the “hERG current change (%, negative = inhibition) at 10uM” value was -23%.
With `Cc1ccccc1Nc1nc(N)c2ccccc2n1.Cl` the “hERG current change (%, negative = inhibition) at 10uM” value was -7.58%.
In the case of `CC(CCc1ccc(O)cc1)N(C)CCc1ccccc1` (stereo not drawn), the “hERG current change (%, negative = inhibition) at 10uM” value is reported as -62.2%.
`O=C(CN1C(=O)NC2(CCCC2)C1=O)N1CCN(S(=O)(=O)c2ccccc2)CC1` was tested, and the “hERG current change (%, negative = inhibition) at 10uM” value was 28.5%.
With `O=[N+]([O-])c1ccc(OCCn2cnc3ccccc32)cc1` the “hERG current change (%, negative = inhibition) at 10uM” value was -68.1%.
With `CC(C)CN(C(=O)CCCOc1ccc(Cl)cc1Cl)c1c(N)n(Cc2ccccc2)c(=O)[nH]c1=O` the “hERG current change (%, negative = inhibition) at 10uM” value was -12.5%.
`CCCN(CC(=O)Nc1cc(C)on1)S(=O)(=O)c1cccc(C(F)(F)F)c1` was tested, and the “hERG current change (%, negative = inhibition) at 10uM” value was 14%.
`COc1cccc(/C=N/Nc2nnc3c(n2)[nH]c2ccccc23)c1OC` was tested, and the “hERG current change (%, negative = inhibition) at 10uM” value was 11.8%.
In the case of `Cc1ccc(C)c(NC(=O)CN(C)C(=O)c2cccc(N3C(=O)CCC3=O)c2)c1`, the “hERG current change (%, negative = inhibition) at 10uM” value is reported as -0.451%.
In the case of `CCOC(=O)C1CCCN(C(=S)NC2CCCCC2)C1` (stereo not drawn), the “hERG current change (%, negative = inhibition) at 10uM” value is reported as 6.12%.
In the case of `COc1ccccc1C(=O)N1CCN(C(=O)COc2cccc(C)c2)CC1`, the “hERG current change (%, negative = inhibition) at 10uM” value is reported as -12.2%.
In the case of `COc1ccc(CCNC(=O)Cn2cc(C(F)(F)F)cc(Cl)c2=O)cc1`, the “hERG current change (%, negative = inhibition) at 10uM” value is reported as 6.98%.
In the case of `Cc1cc(C)c(C#N)c(SCSCc2ccccc2)n1`, the “hERG current change (%, negative = inhibition) at 10uM” value is reported as -7.12%.
With `C/C(=N\Nc1ccc(S(=O)(=O)Nc2ccccc2)cc1[N+](=O)[O-])c1ccncc1` the “hERG current change (%, negative = inhibition) at 10uM” value was 6.48%.
In the case of `O=C(/C=C/c1ccccc1)c1ccc2c3c(cccc13)CC2`, the “hERG current change (%, negative = inhibition) at 10uM” value is reported as 4.3%.
For `CCC(NC(=O)c1ccccc1NC(=O)c1ccco1)C(=O)NC1CCCCC1` (stereo not drawn), the “hERG current change (%, negative = inhibition) at 10uM” value was -22.5%.
In the case of `Cc1occc1C(=O)N/N=C/c1ccc2c(c1)OCO2`, the “hERG current change (%, negative = inhibition) at 10uM” value is reported as 8.07%.
For `COC(=O)c1sccc1N/C=C(\C#N)S(=O)(=O)C(C)(C)C`, the “hERG current change (%, negative = inhibition) at 10uM” value was 2.62%.
For `Cc1ccccc1C(=O)NNC(=S)NC(=O)c1ccc(Cl)cc1Cl`, the “hERG current change (%, negative = inhibition) at 10uM” value was 6.56%.
For `Cc1cccc(N(CC(=O)NCCSCc2ccccc2)S(C)(=O)=O)c1`, the “hERG current change (%, negative = inhibition) at 10uM” value was 26.5%.
`Cc1ccc(N2C(=O)NC(=O)/C(=C\c3cccn3C(C)(C)C)C2=O)cc1` was tested, and the “hERG current change (%, negative = inhibition) at 10uM” value was 24.5%.
With `CN(C(=O)COC(=O)c1ccc(=O)n(Cc2ccccc2)n1)C1CCCCC1` the “hERG current change (%, negative = inhibition) at 10uM” value was -9.68%.
In the case of `CSc1ccccc1NC(=O)CN(C)C(=O)Cn1c(=O)oc2ccccc21`, the “hERG current change (%, negative = inhibition) at 10uM” value is reported as 2.37%.
In the case of `C=CCc1ccccc1OCC(O)CN1CCN(c2ccccc2OC)CC1.Cl` (stereo not drawn), the “hERG current change (%, negative = inhibition) at 10uM” value is reported as -75.2%.
In the case of `COc1ccc(C(CC(=O)c2ccccc2)CC(=O)c2ccccc2)cc1OC`, the “hERG current change (%, negative = inhibition) at 10uM” value is reported as -18.4%.
In the case of `COc1ccc(-c2c(C(F)(F)F)nn(C)c2NC(=O)CSCC(=O)O)cc1`, the “hERG current change (%, negative = inhibition) at 10uM” value is reported as 23.9%.
For `COc1cc(-c2nc(-c3ccc(NC(=O)c4ccc(Br)o4)cc3)no2)cc(OC)c1OC`, the “hERG current change (%, negative = inhibition) at 10uM” value was 2.56%.
In the case of `Cc1ccc(C)c(N(C)C(=O)c2ccc3c(=O)n4c(nc3c2)CCCCC4)c1`, the “hERG current change (%, negative = inhibition) at 10uM” value is reported as -7.68%.
`Cc1sc2ccccc2[n+]1CCC(C)S(=O)(=O)[O-]` (stereo not drawn) was tested, and the “hERG current change (%, negative = inhibition) at 10uM” value was -4.04%.
With `COc1ccc(C)cc1NC(=O)NNC(=O)c1ccoc1C` the “hERG current change (%, negative = inhibition) at 10uM” value was 21.3%.
In the case of `COCCn1nnnc1C(c1cccs1)N1CCN2CCCC2C1.Cl` (stereo not drawn), the “hERG current change (%, negative = inhibition) at 10uM” value is reported as 7.3%.
In the case of `O=C(c1ccc(Cl)c([N+](=O)[O-])c1)N1CCN(c2ccccc2)CC1`, the “hERG current change (%, negative = inhibition) at 10uM” value is reported as -16.4%.
With `Cc1cc(C)c2nc(N(CCN(C)C)C(=O)c3ccc4ccccc4c3)sc2c1.Cl` the “hERG current change (%, negative = inhibition) at 10uM” value was 11.6%.
In the case of `Cc1cc(N2CCN(C)CC2)nc2ccc(NC(=S)NCc3cccs3)cc12`, the “hERG current change (%, negative = inhibition) at 10uM” value is reported as -56.3%.
In the case of `CSc1nc(C)cc(OCC(=O)N2CCOCC2)n1`, the “hERG current change (%, negative = inhibition) at 10uM” value is reported as 6.14%.
In the case of `Cc1ccc(C(=O)O)cc1N=Cc1cc(Br)cc(Br)c1O`, the “hERG current change (%, negative = inhibition) at 10uM” value is reported as 16.8%.
For `COc1ccc(NS(=O)(=O)c2ccc(N3CCCCC3)c(N)c2)cc1`, the “hERG current change (%, negative = inhibition) at 10uM” value was -0.652%.
For `CCc1cc(-c2n[nH]c(=S)n2CC(C)C)cs1`, the “hERG current change (%, negative = inhibition) at 10uM” value was 1.12%.
In the case of `COC(=O)c1cccc([N+](=O)[O-])c1CS(=O)(=O)c1ccc(C)cc1`, the “hERG current change (%, negative = inhibition) at 10uM” value is reported as 3.47%.
For `CCCNC(=O)c1ccccc1SCc1c(C)noc1C`, the “hERG current change (%, negative = inhibition) at 10uM” value was 21.9%.
`c1ccc(-c2cccc(-c3ccccc3)n2)cc1` was tested, and the “hERG current change (%, negative = inhibition) at 10uM” value was 18.4%.
In the case of `COc1ccc(OC)c(C(c2nnnn2CC2CCCO2)N2CCN(C)CC2)c1.Cl` (stereo not drawn), the “hERG current change (%, negative = inhibition) at 10uM” value is reported as 7.06%.
For `CS(=O)(=O)NN1C(=O)c2ccccc2NC1c1ccccc1F` (stereo not drawn), the “hERG current change (%, negative = inhibition) at 10uM” value was 7.61%.
`CCc1ccccc1NC(=O)CSc1nnc(Cn2nnc3ccccc32)n1C` was tested, and the “hERG current change (%, negative = inhibition) at 10uM” value was 5.27%.
In the case of `Cc1nc(CSc2ccccc2)cc(=O)[nH]1`, the “hERG current change (%, negative = inhibition) at 10uM” value is reported as 9.19%.
`COc1cc(NC(=O)CN2C(=O)COc3ccc(S(=O)(=O)N4CCCC4)cc32)cc(OC)c1` was tested, and the “hERG current change (%, negative = inhibition) at 10uM” value was -21.7%.
For `CCOc1ccc(CN2CCNC(=O)C2CC(=O)O)cc1` (stereo not drawn), the “hERG current change (%, negative = inhibition) at 10uM” value was 11.1%.
With `CCOC(=O)c1c(NC(=O)C(C)OC(=O)c2ccc(NC(=O)CC#N)cc2)sc2c1CCCC2` (stereo not drawn) the “hERG current change (%, negative = inhibition) at 10uM” value was 12.5%.
